# Laboratory results from the supplement of paper PMC3334620.
# Over roughly 33,000 sequences, “E-score (-0.5 to 0.5)” has its median near -0.021; the highest 2% begin near 0.32. The list shows a part of the results.
# Molecular target: T1, Zap1 (UniProt P47043)
# T1 sequence: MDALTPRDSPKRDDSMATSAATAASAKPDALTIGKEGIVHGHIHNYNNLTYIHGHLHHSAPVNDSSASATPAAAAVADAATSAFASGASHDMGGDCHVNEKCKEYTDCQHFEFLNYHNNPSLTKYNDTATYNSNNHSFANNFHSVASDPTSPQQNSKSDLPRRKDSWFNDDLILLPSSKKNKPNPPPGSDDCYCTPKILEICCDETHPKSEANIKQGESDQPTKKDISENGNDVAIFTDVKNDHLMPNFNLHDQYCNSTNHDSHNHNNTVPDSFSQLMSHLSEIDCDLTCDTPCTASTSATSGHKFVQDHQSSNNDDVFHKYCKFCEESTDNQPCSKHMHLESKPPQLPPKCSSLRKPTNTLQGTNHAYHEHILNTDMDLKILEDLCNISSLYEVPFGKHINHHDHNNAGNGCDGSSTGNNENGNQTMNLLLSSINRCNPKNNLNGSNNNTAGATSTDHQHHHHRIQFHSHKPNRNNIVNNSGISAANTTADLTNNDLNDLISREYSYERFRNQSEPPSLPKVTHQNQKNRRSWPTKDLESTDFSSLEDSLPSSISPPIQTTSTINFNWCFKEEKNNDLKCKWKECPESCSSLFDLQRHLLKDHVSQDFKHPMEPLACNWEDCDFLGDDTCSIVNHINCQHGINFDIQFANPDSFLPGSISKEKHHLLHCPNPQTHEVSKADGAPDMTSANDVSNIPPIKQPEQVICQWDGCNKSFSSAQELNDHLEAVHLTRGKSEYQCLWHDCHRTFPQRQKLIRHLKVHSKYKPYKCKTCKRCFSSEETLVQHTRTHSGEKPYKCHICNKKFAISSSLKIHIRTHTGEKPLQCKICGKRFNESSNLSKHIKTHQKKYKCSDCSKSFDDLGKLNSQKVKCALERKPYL
# Assay: PBM E-score (8-mer binding enrichment) (E-score (-0.5 to 0.5)); higher = stronger / more preferred TF binding; most listed sequences are background and not binding sites
# Settings: protein concentration: 200 nM; construct: GST-full length
# Outline: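 GST-tagged yeast TFs (full-length or DNA-binding domain) were made by PURExpress in vitro transcription/translation and applied at about 100-200 nM to universal all-10-mer Agilent arrays. The arrays were made double-stranded by primer extension, on fresh or once-stripped slides. Bound protein was detected with fluorescent anti-GST, and scans were normalised with masliner. Each ungapped eight-base word, pooled with its reverse complement, received an E-score (modified Wilcoxon-Mann-Whitney statistic) from the Universal PBM Analysis Suite.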
row,Sequence,PBM E-score
1,GGAAAAAC,0.178
2,GGCATTCA,-0.219
3,GCAGTGAC,-0.018
4,GACGGCGC,-0.28
5,AACTAGAT,0.0713
6,AGCGCAAA,-0.172
7,GAACATCC,0.00204
8,CCCATACC,0.223
9,CGTCAAAC,-0.0166
10,AACCGCTA,0.23
11,ATCAATAA,0.184
12,CGCTGCGC,-0.373
13,AAGTCGAA,-0.22
14,TCAGTCCA,-0.309
15,CTTTGAAA,0.129
16,GCTGTCCA,0.00525
17,AACCAATT,0.213
18,AAGCTAGT,-0.146
19,CCAGTTCC,0.0998
20,TATAGCCA,-0.028
21,CGGCAGTC,-0.101
22,CGGCGGCA,-0.236
23,CGCATCAC,0.12
24,ATACGTTG,-0.168
25,TCCGGCCA,-0.212

row,Sequence,PBM E-score
1,ATCTCGCC,-0.29
2,AAAGATCT,-0.0307
3,TACTTATA,0.0726
4,TAATTTGA,0.0906
5,CATGTCGA,-0.0799
6,AAACCTTT,0.263
7,ACTAGTGG,0.113
8,AGTCTGTC,-0.0794
9,AGGTGTGA,-0.0666
10,AGAGACGG,-0.037
11,AAGAGGGA,-0.199
12,ATAGCAAC,-0.0476
13,TCGCCGCA,0.078
14,CGACGCAA,-0.063
15,AACTTCTA,-0.119
16,ACAGAGAG,-0.27
17,TAATACCA,0.137
18,AGCGTCGG,-0.0562
19,CCAGTTTA,0.073
20,CGCAGGCG,-0.228
21,ACGAGACC,-0.00263
22,CCTCGTAA,0.179
23,CCATGTTA,0.1
24,AGCGATAG,-0.186
25,TAGGCGAA,-0.256

row,Sequence,PBM E-score
1,AGGACCTA,0.12
2,CAGGGCGG,-0.172
3,AACAACGA,0.00655
4,GCGGTCAC,0.313
5,AGGTCACA,0.359
6,AATGACAA,0.153
7,CACTCTGG,-0.151
8,AGCCAATA,0.00338
9,AAATAGTC,-0.181
10,GAGAAGGC,-0.135
11,CGAGGTGA,0.239
12,CACTCCCC,-0.275
13,CCATGGGG,0.28
14,GGAATCTA,-0.121
15,AACTTGGG,0.0268
16,GACCGCCA,-0.0676
17,AAGCTCGC,-0.0489
18,CGTGAGTA,0.0596
19,CAACCGCA,0.106
20,ATGATCTC,-0.0835
21,CACCACCC,0.186
22,CGTACTTA,-0.0746
23,AGCGCTGG,-0.109
24,AGGCCGAT,-0.144
25,AATCCATT,0.0141

row,Sequence,PBM E-score
1,AACTTCCA,0.092
2,ATACATCC,-0.135
3,CAATTTCC,-0.0587
4,GATGCAGC,-0.161
5,CAACTAGG,0.0465
6,ATATTGAG,0.0336
7,AAGCTAAC,0.146
8,CTCCCTGA,-0.198
9,CTACCTGA,0.00976
10,CACCAAAG,0.0401
11,ACGGAGAA,-0.179
12,AGACCCAT,-0.0274
13,CCGTCTTC,-0.0693
14,AATTGCCT,-0.0461
15,GGTGCAGA,-0.182
16,CACTTTGC,0.0546
17,CGGGAGCA,-0.281
18,ATGAACCC,0.15
19,TATGTCCA,-0.0504
20,GCAGCAAC,0.0522
21,CCCGTACA,-0.172
22,ACGCTTCT,-0.246
23,CGACTGAC,-0.223
24,GATAGCTA,-0.298
25,GTACCAGA,0.214

row,Sequence,PBM E-score
1,CAAATATC,0.104
2,ATTCCCCC,-0.291
3,ATCTCGTG,-0.0976
4,TGGTTTAA,0.242
5,ATACGCAG,-0.3
6,CACGCCCC,-0.137
7,ATCACTCC,-0.115
8,GCCAACAC,-0.121
9,GAGCTGGA,-0.162
10,GTGCAGTA,-0.136
11,CAATCTTC,0.161
12,AGTAAATA,0.12
13,AGATAGCG,-0.163
14,AACGACCG,-0.0501
15,ATCTCTGC,-0.101
16,AGGTTGTC,0.242
17,GTTTGCAA,0.0866
18,CGACGCTC,0.0879
19,ACTCAAGA,0.135
20,CTGCACAC,-0.13
21,ATATTTTC,0.195
22,ACGCTGTC,-0.107
23,AAGGCCTC,0.0146
24,CTACGAGC,-0.204
25,CCTAGTCG,-0.248

row,Sequence,PBM E-score
1,CTGGGCCC,-0.0741
2,CGATTCGA,0.166
3,CCGCGCAA,-0.0554
4,AATGCCCC,-0.0353
5,ACACTAGT,0.00423
6,ATTTACTG,0.13
7,ATGGCTTG,-0.169
8,TAACGCTA,0.00603
9,AACCTGTG,0.207
10,AATTGGGA,0.0996
11,AACAATGT,0.115
12,AAGTTGGG,-0.112
13,CAGGGAGA,-0.221
14,ACGACGGA,-0.113
15,CTCCGAGA,-0.0293
16,TACCTCTA,0.347
17,ATTTCGCG,0.104
18,GGAAACTA,-0.153
19,AACTCTGC,-0.0707
20,CGAGGCAG,-0.0981
21,ATTTCAAC,0.0908
22,TCATGCGA,-0.00209
23,GAAAACTC,-0.0414
24,ATTCGTTC,0.144
25,CTGAGATC,-0.24

row,Sequence,PBM E-score
1,AGAAGGAC,-0.176
2,ATCTGAGC,-0.0293
3,GTTCATTA,0.0845
4,GTTTAGAA,0.0417
5,GGCCCGCC,-0.259
6,CAGTCTTA,-0.136
7,CATTGCTC,-0.189
8,GAAAATAA,0.204
9,GAGACCCA,0.126
10,ACCAGGTG,-0.0712
11,AACTAAGC,0.0568
12,CTGGCGAA,-0.176
13,CCACAGGG,0.1
14,AAGTCGAG,-0.0695
15,AGAAGGTA,0.286
16,AGTTGAGC,-0.032
17,CCTATGAC,0.26
18,CGTGGTCC,0.0197
19,AAAATGCT,0.00547
20,ATCAGTGA,0.0209
21,GGAGTTAA,0.029
22,CGATGTCC,0.0405
